# Experimental data as given in the supplement of paper PMC11417369.
# ± gives the standard deviation of the averaged measurements. This is one part of the list.
# Tested on: PfAP2-LT AP2 domain (GST-tagged)
# Assay: gcPBM binding intensity (ln(normalized median fluorescence intensity)); higher = stronger DNA binding
# Method in brief: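 In this array assay, P. falciparum DNA-binding domains with a GST tag, expressed in E. coli, were applied for 1 h to primer-extended double-stranded 36-bp intergenic genomic probes and negative controls on an Agilent 4 × 180k array. Bound protein was visualised with Alexa488 anti-GST antibody at 488 nm. Binding intensity is the highest Masliner-normalised natural-log median intensity across replicate spots of either probe orientation.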
row,Sequence,gcPBM binding intensity (ln)
1,TAAATACAGACATATACACACATATATATATATATA [CACACA_site4382],9.925 ± 0.0071
2,GAATATTAAACAAACACACACACATATATATATATA [CACACA_site3382],10.1 ± 0.2
3,AGTAGTCTGGAGAAAAGTACACAGTATCTGGTAACC [XGTACX_site2035],8.87 ± 0.49
4,AATATATACATACATACATGCATACATATATATAAC [TGCATGCA_site371],9 ± 0.37
5,TTTAAATATATTCAATCACACACATTCGTTTTTTTT [CACACA_site7962],8.96 ± 0.44
6,GTATAAAAATTATATACACACAACAGAATTACATAT [CACACA_site133],9.12 ± 0.42
7,GTTTATTGATTTATTTGTACTTATATATATATTTCA [XGTACX_site5098],9.04 ± 0.45
8,AATAAAAATATAGGCACACATATTAAAATGAACTTA [CACACA_site830],8.9 ± 0.5
9,TTATGTATCCTTATAAGAAAAAAAAAAAAATTCTCT [CACACA_negctrl_site1183],8.21 ± 0.4
10,TAAAGATGTATTTATTCACACATCTCATATAATGAA [CACACA_site5229],8.49 ± 0.39
11,TGAATTTAGATATATACACACAAAAGTAAATACAAT [CACACA_site5548],9.1 ± 0.47
12,TATAAATAGATATATACACACATTTTTAATGATAAA [CACACA_site7299],8.78 ± 0.45
13,TTTTTATTTTTTCAAGTGCATATTTTTGGCTTCTTA,8.57 ± 0.54
14,TATATATATATATTACGTTTTAAATATACTAATCTT [CACACA_negctrl_site32],8.88 ± 0.29
15,AAAAAAAAAAAAAATACACACATATATATATATATA [CACACA_site85],9.96 ± 0.085
16,CTTTTTCCTTTATATTGTACATAATTAAAGATAATA [XGTACX_site7014],8.36 ± 0.35
17,TAAATTTATATATAGGTGCGCAATTTGATAATAGTT [GTGCAC_site9783],9.04 ± 0.39
18,AAAAAAAAAAGACACACACACAATAGTATATAAATC [CACACA_site6579],9.85 ± 0.26
19,TTTTTGTATGCTTCCCGATTACATTATGTTGTAAAT [CACACA_negctrl_site227],8.95 ± 0.47
20,ATTTATGTTATATATACACACACAAAAGAAAAAAAA [CACACA_site8977],9.21 ± 0.36
21,TCCTACATATAAAAATGTACCCATTGTTTTTTTTTT [XGTACX_site7205],8.54 ± 0.64
22,TATATATATATATATACACACATATACATATTGTTT [CACACA_site3499],9.71 ± 0.33

row,Sequence,gcPBM binding intensity (ln)
1,TTGTGTTAACTACCATGTACTTATACATCATAGGAA [XGTACX_site6627],8.57 ± 0.48
2,AATGTATATAGAAACATGCACACGTGGTTGTATATA [CACACA_site3278],9.16 ± 0.42
3,TATTGCCCTGGACACACACACATATATATATATATA [CACACA_site5389],10.2 ± 0.064
4,ATAATATAAACATACACACACACATCTATATTTATA [CACACA_site7381],9.92 ± 0.071
5,TTATGTTATATAAAAAGTACAAATTTTTTTTAATTA [XGTACX_site3435],8.22 ± 0.54
6,ATTATTATTATATATGCATGTAAAATATTAAAGTAC [TGCATGCA_site914],8.68 ± 0.38
7,ATACATATAAAAAAGTGTACATATTAAAATAAGTAT [XGTACX_site1310],9.1 ± 0.4
8,AATGCAAATAATAAAACACACAAAAAAAAGAAAAAA [CACACA_site1184],9.1 ± 0.56
9,ATATCCGTTCAAAGATGTACATATATATTCTATAGA [XGTACX_site5354],8.71 ± 0.47
10,TCATACAAACCTATTTGTACATAAGTATAATATATA [XGTACX_site4284],8.66 ± 0.38
11,AAGTATTACAACCACACACACACCTATATATCATAG [CACACA_site7878],9.99 ± 0.25
12,ATCTTTTACGAATACACACACATAAAGAAAAAAAAA [CACACA_site1331],9.2 ± 0.37
13,AAGGATATGAAAAGTAGTACAAAATTTAGAACACCC [XGTACX_site4758],9.12 ± 0.46
14,ATTATATTCTCCTTCACACACAAAAATATTTCATCA [CACACA_site5326],9.13 ± 0.45
15,TTACGATTAAATATAACACACAACATATTTTTAATA [CACACA_site2967],8.75 ± 0.47
16,CACAAAAATTTATACACACACATATATAATATATAT [CACACA_site152],9.33 ± 0.4
17,ATTTCAAATTAATTTACACACTTCATACTAAAAGAC [CACACA_site3176],8.71 ± 0.4
18,TTGATATATAATAATACACACTTACATAATTAATTA [CACACA_site4320],8.7 ± 0.42
19,TATATTATTAAGATATGTACATAATTATAAATTTAA [XGTACX_site6848],8.45 ± 0.45
20,ATGAAAAAATTTATATGTACTTAAAATATAATCATA [XGTACX_site1228],8.41 ± 0.36
21,ATAAATAAAGGACACACACACACACTAGAAAAAAAA [CACACA_site5450],10.2 ± 0.3
22,AAAATAAAATTAGTTGCATGCAACTTAAACAGAAAT [TGCATGCA_site860],9.05 ± 0.46

row,Sequence,gcPBM binding intensity (ln)
1,TTGTGCTTGATATCACGGACAAGCTCATATTATATA [XGTACX_site4553],8.68 ± 0.35
2,AAAAATTTTATATTCACACACATATATATATATATA [CACACA_site624],9.63 ± 0.13
3,TATTTTTATATTTTTGCACACATTCTTTACTCTTCA [CACACA_site2211],9.38 ± 0.39
4,GATATATATTAATATACACACACACCGATATATATA [CACACA_site8462],9.72 ± 0.12
5,TTTATATTTTATAAATTATTCATAAATATATTTGTA [TGCATGCA_negctrl_site175],8.29 ± 0.47
6,AATAAATAGATAAGCACACAAGCATATAGACATATA [CACACA_site222],9.24 ± 0.47
7,AAATTCCACCAACACACACACATATAAATAAATAAA [CACACA_site1233],9.86 ± 0.42
8,TTTTGAAACATATGATGTACACGAACATTTAAAAAA [XGTACX_site474],8.51 ± 0.4
9,TATAAATAAAAACACACACACACATATATATATATA [CACACA_site2268],10.2
10,TATAAATATAAATATACACACATATTTATATTTATA [CACACA_site7053],8.72 ± 0.33
11,CTCTATAAATGCTGCACACACATTTAATTATTTAAG [CACACA_site2582],9.14 ± 0.33
12,TTTTACAATGAAAGGTGTACAAGTAACAGTAGAACA [XGTACX_site1528],9.02 ± 0.5
13,AAATGAAATACATCCTGTACATAGTAATGCTAACAA [XGTACX_site6600],8.89 ± 0.42
14,ATAAAAGATATTTTTACACACTTTTGATGAGATCGT [CACACA_site3053],8.91 ± 0.38
15,ATACCAACATATTATACACACCTTTATATTTTTTTT [CACACA_site5217],9.06 ± 0.45
16,TTCAAGGTTTTAGATTGTACAATTATTATATATATA [XGTACX_site8982],8.71 ± 0.46
17,GGTTGTATAAGTTTTTGTACATATATATATATATAT [XGTACX_site7487],9.66 ± 0.38
18,TGAGCATAAAAAGGGTGTACTTAAATATATTATATA [XGTACX_site7556],8.72 ± 0.57
19,GAATATAATCTGTATTGTACGAAAGTTGAACACTTG [XGTACX_site8895],8.74 ± 0.45
20,TTGTATTATTATGTTGCACACATTTTATATAAAATA [CACACA_site3641],9.05 ± 0.38
21,TTTAGATAATTCATTACACACATGTATTTATATATA [CACACA_site5847],8.96 ± 0.43
22,TATATATATATATATATATATACAAATATATATTAT [CACACA_negctrl_site1729],9.4 ± 0.22

row,Sequence,gcPBM binding intensity (ln)
1,TTTTTGTAAAAACACACACACAAACAGAAAAAATAA [CACACA_site2076],9.4 ± 0.25
2,ATGGTAGTTCTCCATGCATGCCTTTTTATTATCATA [TGCATGCA_site681],9.17 ± 0.45
3,TGTGCCCAAAATTATGCACACACCTAAAATTAATTT [CACACA_site2914],9.07 ± 0.33
4,TTTTATCTTTTTTTATTTTAATGTATTATTTTTATG [XGTACX_negctrl_site24],8.62 ± 0.66
5,ATATGTGTATGTGCGTGTACATATCTATACAGTTGT [XGTACX_site6540],9.24 ± 0.35
6,ACTATTTAGTCTGGTGGTACTTTATATATAATTTCT [XGTACX_site5618],9.12 ± 0.42
7,ATTATCATAATGTTCACACATATGGTATATATAGAT [CACACA_site6113],8.8 ± 0.31
8,TAATAAGAAATAACAGGTACACATATATAAATATTA [XGTACX_site2976],8.96 ± 0.42
9,ATATGTAGATGATATTATTACTTTTCAAAAATTCAA [CACACA_negctrl_site933],8.55 ± 0.49
10,AAGTATAAAAAAAGGCGTACAAAAAAAAAAAAAAAA [XGTACX_site7309],8.59 ± 0.61
11,TTTTTCATTAATACAAGTACAAAATGATGTTGACAT [XGTACX_site1475],8.5 ± 0.42
12,ACTTTACAATATATATGTACATATTAATAAACATAT [XGTACX_site3689],8.94 ± 0.47
13,GAGTTTTTTTAATGATGTACATTTTAAAAATAAACG [XGTACX_site1036],8.29 ± 0.39
14,AAAATAATATATGTATGTACATATACACATATAGAA [XGTACX_site2218],8.91 ± 0.52
15,AAATGTTATAACTCTTGAAAAAACAAAATATCATCA [CACACA_negctrl_site1156],8.53 ± 0.35
16,AGAAACCTTGTTAGTTAGCATATATATATATATATA [CACACA_negctrl_site372],9.78 ± 0.028
17,AAATATAAACGGCACACACACAAAAAAAGAAAAAAA [CACACA_site649],9.73 ± 0.42
18,TATTTTATACATATTTTACACACTAATATATACATA [CACACA_site7998],8.82 ± 0.49
19,TTTATTATACAAAATTGTACTTTATAATTTTATGTA [XGTACX_site5846],8.56 ± 0.33
20,AAATATTACGGAATAAAGAGCTTTTAAATAATTTTA [CACACA_negctrl_site1700],8.38 ± 0.52
21,ATACAAAATTTTTAAGAACACACAAAAATGTACTAT [CACACA_site8817],8.85 ± 0.46
22,TGAGGTAACTAAATATGTACGTAACGAAGATACATA [XGTACX_site8231],8.96 ± 0.5
